Laboratory results from PubChem BioAssay AID504332 (National Center for Advancing Translational Sciences (NCATS), 2011).
Screen size: about 350,000 compounds; about 31,000 (8.9%) were called active. The shares of active, inactive and inconclusive entries below differ from those in the screen. The call rests on the fitted dose curve; in most records, active means well fitted inhibition curve with a large enough effect; inconclusive means small, poorly fitted or top-dose-only effect; inactive means no such curve, though single readings can be large or run the other way. Where the call is inconclusive, the potency comes from a doubtful curve fit.

Each compound was assayed against Histone-lysine N-methyltransferase EHMT2 (Homo sapiens) (UniProt Q96KQ7) (assay: qHTS Assay for Inhibitors of Histone Lysine Methyltransferase G9a). Conditions: G9a H3K9 monomethylation, AlphaScreen, 2 h; activity, negative = inhibition: at 59 µM (top of the series) unless noted.
Description: Methylated lysines, on the N-terminal tails of histone proteins serve as epigenetic markers to recruit factors that can then modify local chromatin structure to lead to functional consequences. G9a and other members of the SUV39 family of the SET domain-containing superfamily of histone lysine methyltransferases (HMT) have been identified to specifically methylate Lys9 of histone H3 (H3K9). G9a catalyzes the mono- and di-methylation of H3K9 in mammalian euchromatic regions, where the resulting H3K9me2 is indicative of transcriptional repression. […] The inhibition of G9a will result in transcriptional activation and work synergistically with DNA methyltransferase and histone deacetylase inhibitors, to kill cancer cells. This qHTS assay for identification of G9a inhibitors is a chemiluminescence based AlphaScreen (PerkinElmer). Methylation of biotinylated-histone peptide is measured through specific antibody-based detection, in conjunction with streptavidin-coated donor and anti-IgG antibody-coated acceptor beads. The method is particularly well suited for detection of inhibitors acting by the desired histone peptide competitive mechanism and is applicable to testing other HMTs. Although AlphaScreen has significant advantages with its utility in a variety of epigenetic target assays, the primary screening data provided in this deposition should be used with caution due to the prevalence of screening artifacts. An AlphaScreen counterscreen is highly recommended to be run against any putative actives to eliminate non specific artifacts. Alternatively, one can use other AlphaScreen assays in PubChem to filter out promiscuous hits. Quinn et al. A chemiluminescence-based method for identification of histone lysine methyltransferase inhibitors. Mol Biosyst 6(5): 782-8. 2010. PMID: 20567762 [2] Baell,Holloway. New substructure filters for removal of pan assay interference compounds (PAINS) from screening libraries and for their exclusion in bioassays. J Med Chem. 53(7):2719-40. 2010. PMID: 20131845 NIH Molecular Libraries Probe Production Network [MLPCN] NIH Chemical Genomics Center [NCGC] Structural Genomics Consortium (SGC) NIH Grant: 5U54 MH084681-02
To each well of a 1,536w plate, 2ul of HMT enzyme (final 20nM) were added, using a nanoliter dispenser. The G9a- and GLP-inhibitor BIX-01294 (CID: 25150857) are used as an intraplate control, with a 16-point titration in duplicate. A Kalypsys pin-tool transferred 23nl of library compound solution in DMSO to each well. Following a 15 min incubation of enzyme with compounds at room temperature, 1ul mixture of b-H3K9 peptide substrate (final 500nM) and SAM cofactor (final 20uM) were added. Reactions were allowed to proceed at room temperature for 2 hours. Methylated b-H3K9 peptide product was detected with 0.5 ug/mL rabbit polyclonal anti-monomethyl histone H3K9 antibody (Abcam Inc., Cambridge, MA) and 20 ug/mL each streptavidin-coated donor and anti-rabbit IgG acceptor AlphaScreen beads. Antibody and beads were added in a 1ul dispense, for a final volume of 4ul, and plates were incubated, protected from the light, for 10 min at room temperature. Microplates were then read on an EnVision multilabel plate reader using the 1,536 plate HTS AlphaScreen aperture (excitation time 80 ms, measurement time 240 ms).
Further: nearly all actives have a fitted effect of over 75% in size.
On the % scale 0 is the no-effect control and ±100 the full control effect; potency means the concentration at half of the fitted maximal effect; tags describe the fitted curve by direction and shape.

Chain of UniProt Q96KQ7 (Q96KQ7 whole entry, looked up, the tested form may be a part): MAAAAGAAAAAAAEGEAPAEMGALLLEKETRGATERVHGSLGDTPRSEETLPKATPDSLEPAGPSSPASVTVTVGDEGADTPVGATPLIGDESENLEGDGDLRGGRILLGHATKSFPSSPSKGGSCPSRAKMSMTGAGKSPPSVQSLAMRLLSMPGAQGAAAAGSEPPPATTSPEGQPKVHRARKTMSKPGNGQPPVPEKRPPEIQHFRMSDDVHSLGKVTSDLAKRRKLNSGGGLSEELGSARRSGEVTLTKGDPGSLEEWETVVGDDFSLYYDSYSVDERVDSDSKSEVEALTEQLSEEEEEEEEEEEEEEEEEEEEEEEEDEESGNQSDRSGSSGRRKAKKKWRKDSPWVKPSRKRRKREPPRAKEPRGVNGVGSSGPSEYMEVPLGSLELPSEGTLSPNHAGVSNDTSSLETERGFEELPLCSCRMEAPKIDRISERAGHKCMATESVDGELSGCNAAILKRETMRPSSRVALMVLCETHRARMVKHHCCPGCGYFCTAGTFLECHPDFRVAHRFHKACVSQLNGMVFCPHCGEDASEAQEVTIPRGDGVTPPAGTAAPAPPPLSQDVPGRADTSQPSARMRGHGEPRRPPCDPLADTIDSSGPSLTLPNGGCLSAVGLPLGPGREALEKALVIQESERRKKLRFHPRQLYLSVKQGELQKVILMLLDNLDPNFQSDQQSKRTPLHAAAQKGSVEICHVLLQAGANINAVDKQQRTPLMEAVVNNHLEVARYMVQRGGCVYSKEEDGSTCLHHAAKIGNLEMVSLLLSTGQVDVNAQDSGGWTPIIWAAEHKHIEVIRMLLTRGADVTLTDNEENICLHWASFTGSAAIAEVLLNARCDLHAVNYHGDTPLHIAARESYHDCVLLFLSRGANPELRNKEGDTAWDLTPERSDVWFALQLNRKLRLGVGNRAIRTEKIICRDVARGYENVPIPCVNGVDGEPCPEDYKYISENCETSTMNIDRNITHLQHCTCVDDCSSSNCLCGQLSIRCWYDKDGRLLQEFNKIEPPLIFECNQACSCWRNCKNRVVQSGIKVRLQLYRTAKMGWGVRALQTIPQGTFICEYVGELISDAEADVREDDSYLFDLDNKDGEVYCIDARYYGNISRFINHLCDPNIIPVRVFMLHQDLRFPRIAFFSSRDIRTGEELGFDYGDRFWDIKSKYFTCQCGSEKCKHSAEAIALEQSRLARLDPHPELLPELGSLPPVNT

| SMILES | Potency | activity, negative = inhibition |
| --- | --- | --- |
| CCOC(=O)c1c(NC(=O)CCc2ccc(CC)o2)sc(C)c1C | active: 28.2 µM | – |
| Cc1ccc(C)c(NC(=O)C2CCCN2S(=O)(=O)c2ccc3c(c2)CCCC(=O)N3)c1 (configuration not stated) | – | inactive: 4.02% |
| COc1ccc2cc(CCNC(=O)c3ccco3)c(=O)[nH]c2c1 | active: 44.7 µM | – |
| CC1=CC(C)(C)Nc2ccc(OS(=O)(=O)c3ccc(C)cc3)cc21 | active: 12.6 µM | – |
| CN(C)CC(=O)Nc1ccc(Oc2ccc(Cl)cc2)cc1 | inconclusive: 0.562 µM [inhibitor, full curve, poor fit] | – |
| COC(=O)c1cc(CNC(=O)C(C)NS(=O)(=O)c2ccc(C)c(C)c2)ccc1OC (configuration not stated) | – | inactive: 5.84% [at 102 µM] |
| CCC(C)(C)NC(=O)C(c1ccc(F)cc1)N(CCOC)C(=O)CCC(=O)Nc1nccs1 (configuration not stated) | – | inactive: 17.5% |
| CC1=CC(=O)C=C(C)C1=NOc1ccc([N+](=O)[O-])cc1 | inconclusive: 25.1 µM [inhibitor, partial curve, poor fit] | – |
| Fc1ccc(CN2CCN(c3ncccn3)CC2)cc1 | active: 10 µM | – |
| O=C(COC(=O)c1cc(-c2cccs2)nc2ccccc12)NCc1ccco1 | inconclusive: 44.7 µM [inhibitor, partial curve] | – |
| N#C/C(=C\c1ccccc1)c1nc(-c2cc3c(ccc4ccccc43)oc2=O)cs1 | – | inactive: -6.48% |
| Cn1c(=O)c(Nc2ccc(Cl)cc2)c2c3c(cccc31)C(=O)c1ccccc1-2 | active: 22.4 µM | – |
| Cc1ccccc1OCC(=O)N/N=C/c1ccncc1 | inconclusive: 0.251 µM [inhibitor, partial curve, poor fit] | – |
| Cc1ccc(C(c2cc(Cl)c3cccnc3c2O)N2CCN(C)CC2)cc1 (configuration not stated) | active: 3.55 µM | – |
| COc1cccc(-c2noc(COc3cccc(C)c3C)n2)c1 | – | inactive: 96.9% |
| CCC(=O)c1ccc(OCC(=O)OCC(=O)Nc2cccc(S(=O)(=O)N3CCCC3)c2)cc1 | inconclusive: 15.8 µM [inhibitor, single point] | – |
| O=C(Nc1ccc(Br)cc1)c1ccc(Br)c(S(=O)(=O)Nc2cccnc2)c1 | inconclusive: 28.2 µM [inhibitor, partial curve, poor fit] | – |
| O=C1SC(c2ccccc2)=N/C1=C/c1ccco1 | active: 50.1 µM | – |
| CC(C)(Oc1ccc(Cl)cc1)C(=O)OCc1nc2ccsc2c(=O)[nH]1 | – | inactive: -36.1% [at 102 µM] |
| COc1ccc(CN2CCN(Cc3ccc(OC)c(OC)c3OC)CC2)cc1 | inconclusive: 79.4 µM [inhibitor, single point] | – |
| O=[N+]([O-])c1cccc(/C=N/n2c(C3CCCCC3)n[nH]c2=S)c1 | active: 1.58 µM | – |
| CC(=O)NN1C(=O)/C(=C/c2ccc(Br)o2)SC1=S | active: 50.1 µM | – |
| O=C(CC(=O)c1ccccc1)Nc1ccccn1 | – | inactive: 6.13% [at 102 µM] |
| Cc1ccc(C(=O)C(C)OC(=O)CCN=C2NS(=O)(=O)c3ccccc32)cc1 (configuration not stated) | inconclusive: 89.1 µM [inhibitor, partial curve, poor fit] | – |
| N#Cc1ccc(NC(=O)CNc2cc(S(=O)(=O)N3CCOCC3)ccc2NCC2CCCO2)cc1 (configuration not stated) | active: 39.8 µM | – |
| CN(C1CCCCC1)S(=O)(=O)c1ccc2c(c1)CCC(=O)N2 | – | inactive: 4.7% [at 102 µM] |

| SMILES | Potency | activity, negative = inhibition |
| --- | --- | --- |
| O=C(COC(=O)c1cc(S(=O)(=O)NCc2ccccc2)ccc1O)c1cc2ccccc2o1 | inconclusive: 28.2 µM [inhibitor, single point] | – |
| COc1ccc(-c2nc(CSCC(=O)N3CCN(C(=O)c4ccco4)CC3)c(C)o2)cc1OC | – | inactive: -7.96% [at 102 µM] |
| Cc1nnc(SCC(=O)N(C)CC(=O)Nc2ccccc2Cl)s1 | active: 50.1 µM | – |
| CC(C)CN1C(=O)C(=O)N(CC(=O)Nc2cccc(Cl)c2Cl)C1=O | – | inactive: 6.61% [at 12.7 µM] |
| CC1Sc2ccc(C(=O)Nc3ncccc3O)cc2NC1=O (configuration not stated) | inconclusive: 63.1 µM [inhibitor, partial curve, poor fit] | – |
| O=C(Nc1ccc(O)c(C(=O)O)c1)c1cccc(NC(=O)c2ccco2)c1 | inconclusive: 89.1 µM [inhibitor, single point] | – |
| COc1cc(C2C3=C(CCCC3=O)Nc3[nH]n(-c4ccccc4)c(=O)c32)cc(OC)c1OC (configuration not stated) | inconclusive: 100 µM [inhibitor, single point] | – |
| Cc1ccc(O)c(NC(=O)c2cc([N+](=O)[O-])ccc2Cl)c1 | inconclusive: 28.2 µM [inhibitor, partial curve] | – |
| O=C(/C=C/c1ccccc1O)c1ccc(Cl)cc1 | inconclusive: 44.7 µM [inhibitor, partial curve, poor fit] | – |
| CCOC(=O)CC(NC(=O)c1cc2cc(Cl)cc(Cl)c2oc1=O)c1cccc([N+](=O)[O-])c1 (configuration not stated) | – | inactive: 16.9% [at 102 µM] |
| CN(C)c1ccc(NC(=S)c2ccccn2)cc1 | active: 8.91 µM | – |
| CN1CCN(C(=S)SCc2nc(N)nc(Nc3ccc(F)cc3)n2)CC1 | – | inactive: -4.52% [at 102 µM] |
| FC(F)(F)c1ccccc1-n1c(CN2CCCCC2)n[nH]c1=S | active: 20 µM | – |
| CC1CCCN(c2ccc(C(=O)Nc3nnc(C4CC4)s3)cc2[N+](=O)[O-])C1 (configuration not stated) | – | inactive: 5.61% |
| O=C(NCCc1ccccc1)c1nc2ncccn2n1 | – | inactive: -0.176% [at 102 µM] |
| CC(C)(C)C(=O)Nc1ccc(S(=O)(=O)N2CCCC2)cc1 | – | inactive: 7.36% [at 102 µM] |
| CCOC(=O)Cc1csc(NC(=O)/C=C/c2ccc(Br)o2)n1 | active: 50.1 µM | – |
| COCCNC(=O)c1sc2nc3n(c(=O)c2c1C)CCC3 | – | inactive: -3.28% |
| CCCCN(CCCC)C(=O)c1cc2ccccc2c(=O)o1 | inconclusive: 22.4 µM [inhibitor, single point] | – |
| Cc1ccc(CS(=O)(=O)Cc2ccc(C(=O)NCCCN3CC(C)CC(C)C3)o2)cc1 (configuration not stated) | – | inactive: -7.14% |
| COc1ccccc1CN(Cc1cc2cc3c(cc2[nH]c1=O)OCCO3)Cc1nnnn1Cc1ccco1 | – | inconclusive: -85.4% [inhibitor] |
| CN(C(=O)c1ccc(OC2CCN(CCc3ccccc3)CC2)cc1)C1CCCCC1 | – | inactive: 5.47% [at 102 µM] |
| COCCCNCCOCCOc1ccc(C)cc1[N+](=O)[O-] | active: 14.1 µM | – |
| COc1cccc(NC(=O)C(NCC(C)(C)CN(C)C)c2ccccc2)c1 (configuration not stated) | active: 11.2 µM | – |
| CN1CCN(c2ccc(-c3nc(-c4ccccc4)no3)cc2[N+](=O)[O-])CC1 | – | inactive: -0.572% |
| O=C1c2ccccc2C(Nc2ccc(S(=O)(=O)N3CCOCC3)cc2)N1Cc1ccco1 (configuration not stated) | inconclusive: 89.1 µM [inhibitor, single point] | – |

| SMILES | Potency | activity, negative = inhibition |
| --- | --- | --- |
| N#Cc1c(/N=C/c2cc3ccccc3s2)sc2c1CCC2 | inconclusive: 31.6 µM [inhibitor, single point] | – |
| CC1=C(C(=O)NCc2ccco2)C2(CCC(C)CC2)OC1=O (configuration not stated) | inconclusive: 70.8 µM [inhibitor, single point] | – |
| COc1cccc(CC2(CO)CCCN(Cc3ccccc3-c3ccco3)C2)c1 (configuration not stated) | inconclusive: 89.1 µM [inhibitor, single point] | – |
| O=c1c2ccccc2cnn1-c1ccc(Cl)nn1 | inconclusive: 25.1 µM [inhibitor, partial curve] | – |
| O=C(NNC(=S)NC(=O)c1ccco1)c1ccc(F)cc1 | inconclusive: 44.7 µM [inhibitor, partial curve, poor fit] | – |
| CC(C)CC(c1nnnn1C(C)C)N1CCN(c2cccc(Cl)c2)CC1 (configuration not stated) | – | inactive: -31.8% |
| O=C(NCCc1c[nH]c2ccccc12)c1cccc(Br)c1 | – | inactive: 0.2% [at 2.33 µM] |
| Cn1c(CN2CCCCC2)nc2cc([N+](=O)[O-])ccc21 | inconclusive: 56.2 µM [inhibitor, partial curve, poor fit] | – |
| CC(=O)NC(C)c1cc(F)c2cccnc2c1O (configuration not stated) | inconclusive: 1.58 µM [inhibitor, single point] | – |
| CC(C)c1ccc(O)c(NC(=S)NC(=O)c2ccc3c(c2)OCO3)c1 | active: 12.6 µM | – |
| COc1ccc(NC(=O)Cn2c(SCc3c(F)cccc3Cl)nc3ccncc32)cc1OC | inconclusive: 14.1 µM [inhibitor, partial curve] | – |
| Cn1c(=O)c2c(nc(CN3CCN(C(=O)c4ccco4)CC3)n2Cc2ccc(F)cc2)n(C)c1=O | inconclusive: 39.8 µM [inhibitor, single point] | – |
| Cn1c(Cc2cccs2)nnc1SCC(=O)Nc1ccc(F)cc1F | inconclusive: 89.1 µM [inhibitor, single point] | – |
| O=C(NCCN1CCN(Cc2ccccc2)CC1)C1c2ccccc2C(=O)N2CCc3ccccc3C12 (configuration not stated) | – | inactive: 2.6% [at 102 µM] |
| COc1ccc(N2CCN(C(=O)c3cc4c(s3)-c3c(C)cccc3OC4)CC2)cc1 | – | inactive: -7.68% |
| Cc1cc(C)cc(NC(=O)C2CCCN(c3nnc(-n4c(C)ccc4C)s3)C2)c1 (configuration not stated) | – | inactive: 0.469% |
| COC(=O)c1ccc(CSc2nccn2C)cc1 | inconclusive: 50.1 µM [inhibitor, partial curve, poor fit] | – |
| CCCC(=O)Nc1nnc(-c2ccc3c(c2)OCCO3)o1 | – | inactive: 3.1% [at 102 µM] |
| CCOC(=O)c1c(S(=O)(=O)N2CCN(c3cc(Cl)ccc3C)CC2)c(C)n(C)c1C | – | inactive: -34.3% |
| COc1ccc(N2CCN(C(=O)c3ccccc3NC(=O)C3=C(C)OCCS3)CC2)cc1 | inconclusive: 79.4 µM [inhibitor, single point] | – |
| CN1CCN(/N=C/c2cccc(Cl)c2Cl)CC1 | active: 39.8 µM | – |
| COc1ccccc1C(=O)n1nc(C)cc1C | – | inactive: 2.51% [at 102 µM] |
| COc1cc2nc(C3CCC3)nc(N3CCN(c4ccccc4OC)CC3)c2cc1OC | inconclusive: 89.1 µM [inhibitor, single point] | – |
| Cc1ccc(OCc2nc(C#N)c(NCc3ccco3)o2)cc1 | active: 50.1 µM | – |
| O=C(Nc1nncs1)c1ccc(Br)c(S(=O)(=O)N2CCCC2)c1 | inconclusive: 11.2 µM [inhibitor, partial curve, poor fit] | – |
